From the supplement of paper PMC8728848
This is one part of the list.

Legend:
Assay in all cases: glycan array binding signal (z-score within array); higher = stronger binding
Conditions in all cases: glycan notation: IUPAC condensed, linker removed
[1] = molecular target: Neu5Ac(a2-3)Gal(b1-3)GlcNAc6S
Outline: (§1)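 The binding signal is a Z-score computed within each array. Data were drawn from 3228 arrays in the Consortium for Functional Glycomics database, restricted to those with a known protein sequence. Scores were averaged over arrays of the same protein sequence at different concentrations or buffers, and over linkers, and negative values can be taken as non-binding.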

[2] = molecular target: Neu5Ac(a2-3)Gal(b1-3)[Fuc(a1-4)]GlcNAc
Outline: as §1

[3] = molecular target: Neu5Ac(a2-3)Gal(b1-3)[Fuc(a1-4)]GlcNAc(b1-3)Gal(b1-3)[Fuc(a1-4)]GlcNAc
Outline: as §1

[4] = molecular target: Neu5Ac(a2-3)Gal(b1-3)[Fuc(a1-4)]GlcNAc(b1-3)Gal(b1-4)[Fuc(a1-3)]GlcNAc
Outline: as §1

[5] = molecular target: Neu5Ac(a2-3)Gal(b1-3)[GlcNAc(b1-6)]GalNAc
Outline: as §1

[6] = molecular target: Neu5Ac(a2-3)Gal(b1-3)[Neu5Ac(a2-6)]GalNAc
Outline: as §1

[7] = molecular target: Neu5Ac(a2-3)Gal(b1-3)[Neu5Ac(a2-6)]GlcNAc(b1-3)[Fuc(a1-3)[Gal(b1-4)]GlcNAc(b1-6)]Gal(b1-4)Glc
Outline: as §1

[8] = molecular target: Neu5Ac(a2-3)Gal(b1-3)]Neu5Ac(a2-3)Gal(b1-4)]GlcNAc
Outline: as §1

Neu5Ac(a2-3)Gal(b1-4)Glc = molecular target: Neu5Ac(a2-3)Gal(b1-4)Glc
Outline: as §1

[9] = molecular target: Neu5Ac(a2-3)Gal(b1-4)GlcNAc
Outline: as §1

[10] = molecular target: Neu5Ac(a2-3)Gal(b1-4)GlcNAc(b1-2)Man
Outline: as §1

[11] = molecular target: Neu5Ac(a2-3)Gal(b1-4)GlcNAc(b1-2)Man(a1-3)[GlcNAc(b1-4)][Neu5Ac(a2-3)Gal(b1-4)GlcNAc(b1-2)Man(a1-6)]Man(b1-4)GlcNAc(b1-4)GlcNAc
Outline: as §1

[12] = molecular target: Neu5Ac(a2-3)Gal(b1-4)GlcNAc(b1-2)Man(a1-3)[Neu5Ac(a2-3)Gal(b1-4)GlcNAc(b1-2)Man(a1-6)]Man(b1-4)GlcNAc(b1-4)GlcNAc
Outline: as §1

[13] = molecular target: Neu5Ac(a2-3)Gal(b1-4)GlcNAc(b1-2)Man(a1-3)[Neu5Ac(a2-3)Gal(b1-4)GlcNAc(b1-2)Man(a1-6)]Man(b1-4)GlcNAc(b1-4)[Fuc(a1-6)]GlcNAc
Outline: as §1

[14] = molecular target: Neu5Ac(a2-3)Gal(b1-4)GlcNAc(b1-2)Man(a1-3)[Neu5Ac(a2-6)Gal(b1-4)GlcNAc(b1-2)Man(a1-6)]Man(b1-4)GlcNAc(b1-4)GlcNAc
Outline: as §1

[15] = molecular target: Neu5Ac(a2-3)Gal(b1-4)GlcNAc(b1-2)[Neu5Ac(a2-3)Gal(b1-4)GlcNAc(b1-4)]Man(a1-3)[GlcNAc(b1-4)][Neu5Ac(a2-3)Gal(b1-4)GlcNAc(b1-2)[Neu5Ac(a2-3)Gal(b1-4)GlcNAc(b1-6)]Man(a1-6)]Man(b1-4)GlcNAc(b1-4)GlcNAc
Outline: as §1

[16] = molecular target: Neu5Ac(a2-3)Gal(b1-4)GlcNAc(b1-2)[Neu5Ac(a2-3)Gal(b1-4)GlcNAc(b1-4)]Man(a1-3)[GlcNAc(b1-4)][Neu5Ac(a2-3)Gal(b1-4)GlcNAc(b1-4)Man(a1-6)]Man(b1-4)GlcNAc(b1-4)GlcNAc
Outline: as §1

[17] = molecular target: Neu5Ac(a2-3)Gal(b1-4)GlcNAc(b1-2)[Neu5Ac(a2-3)Gal(b1-4)GlcNAc(b1-6)]Man(a1-6)[Neu5Ac(a2-3)Gal(b1-4)GlcNAc(b1-2)Man(a1-3)]Man(b1-4)GlcNAc(b1-4)GlcNAc
Outline: as §1

[18] = molecular target: Neu5Ac(a2-3)Gal(b1-4)GlcNAc(b1-2)[Neu5Ac(a2-3)Gal(b1-4)GlcNAc(b1-6)]Man(a1-6)[Neu5Ac(a2-3)Gal(b1-4)GlcNAc(b1-2)Man(a1-3)][GlcNAc(b1-4)]Man(b1-4)GlcNAc(b1-4)GlcNAc
Outline: as §1

[19] = molecular target: Neu5Ac(a2-3)Gal(b1-4)GlcNAc(b1-3)Gal
Outline: as §1

[20] = molecular target: Neu5Ac(a2-3)Gal(b1-4)GlcNAc(b1-3)Gal(b1-3)GlcNAc
Outline: as §1

[21] = molecular target: Neu5Ac(a2-3)Gal(b1-4)GlcNAc(b1-3)Gal(b1-4)GlcNAc
Outline: as §1

[22] = molecular target: Neu5Ac(a2-3)Gal(b1-4)GlcNAc(b1-3)Gal(b1-4)GlcNAc(b1-2)Man(a1-3)[Neu5Ac(a2-3)Gal(b1-4)GlcNAc(b1-3)Gal(b1-4)GlcNAc(b1-2)Man(a1-6)]Man(b1-4)GlcNAc(b1-4)GlcNAc
Outline: as §1

[23] = molecular target: Neu5Ac(a2-3)Gal(b1-4)GlcNAc(b1-3)Gal(b1-4)GlcNAc(b1-3)Gal(b1-4)GlcNAc
Outline: as §1

[24] = molecular target: Neu5Ac(a2-3)Gal(b1-4)GlcNAc(b1-3)Gal(b1-4)GlcNAc(b1-3)Gal(b1-4)GlcNAc(b1-2)Man(a1-3)[Neu5Ac(a2-3)Gal(b1-4)GlcNAc(b1-3)Gal(b1-4)GlcNAc(b1-3)Gal(b1-4)GlcNAc(b1-2)Man(a1-6)]GalNAc
Outline: as §1

[25] = molecular target: Neu5Ac(a2-3)Gal(b1-4)GlcNAc(b1-3)Gal(b1-4)GlcNAc(b1-3)GalNAc
Outline: as §1

[26] = molecular target: Neu5Ac(a2-3)Gal(b1-4)GlcNAc(b1-3)Gal(b1-4)GlcNAc(b1-3)[Neu5Ac(a2-3)Gal(b1-4)GlcNAc(b1-3)Gal(b1-4)GlcNAc(b1-6)]GalNAc
Outline: as §1

[27] = molecular target: Neu5Ac(a2-3)Gal(b1-4)GlcNAc(b1-3)Gal(b1-4)GlcNAc(b1-6)[Gal(b1-3)]GalNAc
Outline: as §1

[28] = molecular target: Neu5Ac(a2-3)Gal(b1-4)GlcNAc(b1-3)Gal(b1-4)[Fuc(a1-3)]GlcNAc
Outline: as §1

[29] = molecular target: Neu5Ac(a2-3)Gal(b1-4)GlcNAc(b1-3)GalNAc
Outline: as §1

B1: CrataBL (Crataeva tapia), C0HJA4 (protein)
chain: AILTGVPYYILPSTSRAGFSPDNLRKNTSQLSCPLDLITQLRFPRRIGVPVIFTPQNSSLKVVPLSHNLNIHTCSDLWFCPESKIWTVKSSLTHGGSVVTTGGTFRSLGSWFRIERHGDSYKLVHCPRGSTPCRDVGIETVGGGGRRYLAPRDRPLAVRFTRASG
[1]
  glycan array binding signal (z-score): 1.78
[2]
  glycan array binding signal (z-score): -0.062
[3]
  glycan array binding signal (z-score): -0.23
[4]
  glycan array binding signal (z-score): 0.645
[5]
  glycan array binding signal (z-score): -0.051
[6]
  glycan array binding signal (z-score): -0.452
[7]
  glycan array binding signal (z-score): 0.188
[8]
  glycan array binding signal (z-score): 0.416
Neu5Ac(a2-3)Gal(b1-4)Glc
  glycan array binding signal (z-score): 0.553
[9]
  glycan array binding signal (z-score): -0.106
[10]
  glycan array binding signal (z-score): 0.595
[11]
  glycan array binding signal (z-score): -0.447
[12]
  glycan array binding signal (z-score): -0.001
[13]
  glycan array binding signal (z-score): -0.482
[14]
  glycan array binding signal (z-score): -0.302
[15]
  glycan array binding signal (z-score): -0.301
[16]
  glycan array binding signal (z-score): -0.454
[17]
  glycan array binding signal (z-score): 0.127
[18]
  glycan array binding signal (z-score): -0.386
[19]
  glycan array binding signal (z-score): -0.009
[20]
  glycan array binding signal (z-score): -0.212
[21]
  glycan array binding signal (z-score): 0.173
[22]
  glycan array binding signal (z-score): 0.515
[23]
  glycan array binding signal (z-score): -0.389
[24]
  glycan array binding signal (z-score): 2.17
[25]
  glycan array binding signal (z-score): -0.093
[26]
  glycan array binding signal (z-score): 0.18
[27]
  glycan array binding signal (z-score): 0.174
[28]
  glycan array binding signal (z-score): 0.392
[29]
  glycan array binding signal (z-score): -0.161
